Test results: publication PMC6919601, “Identification of Plasmodium dipeptidyl aminopeptidase allosteric inhibitors by high throughput screening” (PLoS ONE, 2019)
Screen size: about 110,000 compounds; about 230 (0.21%) showed an effect of 50% or more. This is one part of the list.

target: DPAP1 (Plasmodium falciparum, UniProt Q8IIJ9); assay: primary screen, percent inhibition; read by cleavage of a fluorogenic dipeptide substrate; higher = more effect of the substance; design: species or system P. falciparum D10 trophozoite lysates; single well
Description: HTS was performed in black 384-well plates. The first and last two columns of each plate contained our negative (DMSO) and positive (10 μM JCP410) controls, and the 20 central columns the test compounds at 10 μM. Compounds were first diluted 50-fold into assay buffer (50 mM sodium acetate, 5 mM MgCl2, 10 mM β-mercaptoethanol, and 0.1% CHAPS, pH 5.5) from a 10 mM DMSO stock plates. One microliter of this 200 μM intermediate stock plate was dispensed into the assay plate. […] After 30 min, the reaction was quenched with 20 μL of 0.5 M acetic acid, and the fluorescent intensity measured at 523 nm (λex = 492 nm) using an Analyst HT multimode plate reader (Molecular Devices).
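Further: 30 min substrate incubation versus DMSO and 10 µM JCP410 controls.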

DPAP1, sequence (Q8IIJ9 whole entry, looked up): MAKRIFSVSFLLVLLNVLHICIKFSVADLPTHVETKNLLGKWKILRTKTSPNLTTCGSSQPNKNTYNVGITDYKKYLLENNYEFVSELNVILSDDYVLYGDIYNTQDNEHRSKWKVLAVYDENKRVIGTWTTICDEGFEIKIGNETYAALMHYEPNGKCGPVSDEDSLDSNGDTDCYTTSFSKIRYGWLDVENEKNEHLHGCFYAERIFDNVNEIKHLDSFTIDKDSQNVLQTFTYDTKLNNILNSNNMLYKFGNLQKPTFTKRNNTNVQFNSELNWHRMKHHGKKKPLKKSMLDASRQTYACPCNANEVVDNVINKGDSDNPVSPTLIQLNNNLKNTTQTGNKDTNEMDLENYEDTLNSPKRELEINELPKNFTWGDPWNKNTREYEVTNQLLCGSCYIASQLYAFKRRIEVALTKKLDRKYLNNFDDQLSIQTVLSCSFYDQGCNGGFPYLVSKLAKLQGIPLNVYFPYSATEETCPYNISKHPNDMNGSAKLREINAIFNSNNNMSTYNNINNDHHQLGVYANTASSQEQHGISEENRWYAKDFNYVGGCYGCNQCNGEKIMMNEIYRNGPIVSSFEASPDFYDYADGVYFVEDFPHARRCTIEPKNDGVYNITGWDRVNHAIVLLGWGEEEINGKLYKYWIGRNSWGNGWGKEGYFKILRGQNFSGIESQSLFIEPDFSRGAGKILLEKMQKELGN

| Structure (SMILES) | % Inhibition @ 10 uM [%] |
| --- | --- |
| COCCNS(=O)(=O)c1ccc(-c2cc(C(F)(F)F)no2)s1 | 0.359 |
| CC1CCN(S(=O)(=O)c2cn(CC(=O)N3CCN(C)CC3)c(=O)c3ccccc23)CC1 | 3.5 |
| Cc1ccc(CC2CC(=O)N(c3ccccn3)C2=O)cc1 (stereo not shown) | 20.5 |
| O=C(Cn1ncn2nc(-c3cccs3)cc2c1=O)NCCCN1CCN(Cc2ccccc2)CC1 | 2.27 |
| COc1ccc(CN(C(C)=O)C2CC(=O)N(c3ccc(Cl)cc3)C2=O)cc1 (stereo not shown) | 2.92 |
| Cc1ccc(C2Nc3ccccc3N=C3CC(c4cccs4)CC(O)=C32)o1 (stereo not shown) | -1.38 |
| Cc1nc2nc(NC(=O)c3ccccc3)nn2c(O)c1C | -6.81 |
| Cc1c2cnn(CC(=O)NCCCOC(C)C)c(=O)c2c(C)n1Cc1ccccc1Cl | -2.17 |
| C=CCN(CC=C)S(=O)(=O)c1cc(Cl)ccc1Cl | 4.54 |
| CCCN1C(=O)c2[nH]nc(-c3cc(C)ccc3O)c2C1c1ccc(C)cc1 (stereo not shown) | -2.92 |
| O=C(c1ccccc1)N1CCC(O)C2CCCCC21 (stereo not shown) | -0.703 |
| Cc1c(C2(c3c(C)n(C)n(-c4ccccc4)c3=O)C(=O)Nc3ccc(Br)cc32)c(=O)n(-c2ccccc2)n1C | 0.215 |
| O=C(O)CCNC(=O)/C(=C/c1ccc2c(c1)OCO2)NC(=O)c1ccco1 | 1.01 |
| Nc1nc2n(n1)C(c1ccc(Cl)cc1)CC(=O)N2 (stereo not shown) | -2.65 |
| O=C(CCCn1c(=O)c2cccn2c2cccnc21)NCCCc1ccccc1 | 4.39 |
| N#CC1=C(N)OC2=C(C(=O)CC(c3ccco3)C2)C1c1ccc2c(c1)OCO2 (stereo not shown) | 5.48 |
| Cc1ccc2oc(=O)c3cnn(CC(=O)Nc4nc(C)cs4)c3c2c1 | -1.7 |
| O=C1CCC(=O)N1CCSC(=S)N1CCOCC1 | 6.18 |
| Cc1nc(N)sc1-c1csc(Nc2ccc(N(C)C)cc2)n1 | -4.32 |
| COc1cc(CNCc2cccnc2)ccc1OCC(N)=O | -3.26 |
| CCC(=O)N1CC2(C)CN(C(=O)CC)CC(C)(C1)C2 | 3.27 |
| CCOC(=O)c1nn2c(C(F)(F)F)cc(-c3ccco3)nc2c1Cl | 3.76 |
| Cc1nc2c(C(=O)N3CCCC3)cnn2c(C)c1Cc1ccccc1F | 1.27 |
| Cc1nc2ccccc2nc1-c1ccc([N+](=O)[O-])cc1 | 1.29 |
| CCOC(=O)N1CCN(Cc2nc(-c3ccc(OC)cc3)no2)CC1 | 3.57 |

| Structure (SMILES) | % Inhibition @ 10 uM [%] |
| --- | --- |
| C=CCO/C(O)=C1\C(C)=NC(SCC(=O)Nc2nccs2)=C(C#N)C1c1ccco1 (stereo not shown) | 3.79 |
| COc1ccc(C2NC(C(=O)O)Cc3c2[nH]c2ccccc32)cc1OC (stereo not shown) | -5.9 |
| COc1ccc(CCNS(=O)(=O)c2ccc(OC)c(Cl)c2Cl)cc1 | 1.59 |
| O=C(Cc1ccccc1)N1CCN(c2ccccn2)CC1 | 3.72 |
| CC(=O)N1C(=O)c2cccc3cccc1c23 | 0.273 |
| CCOc1ccc(C(=O)/C=C/c2ccccc2C(F)(F)F)cc1 | 5.7 |
| COc1cccc(S(=O)(=O)NCC(=O)N2CCN(C(=O)c3ccco3)CC2)c1 | 1.17 |
| O=S1(=O)C(/C=N/CC2CCCO2)=C(O)c2sccc2N1Cc1ccccc1 (stereo not shown) | -4.22 |
| CCOc1ccccc1CNC(=O)c1ccc(CS(=O)Cc2ccc(C)cc2)o1 (stereo not shown) | 2.83 |
| O=C(NCCNC(=O)c1ccc(C(F)(F)F)cc1)c1ccc(C(F)(F)F)cc1 | 2.18 |
| O=C(Nc1nc2c(s1)CCCC2)c1ccccc1Oc1ccccc1 | 0.222 |
| CCOc1ccc(/C=C/C2=CC(C)(C)NC(S)=N2)c(Cl)c1 | -5.27 |
| CC(CCCC(C)(C)O)NC1CCCCCCC1 (stereo not shown) | -1.81 |
| Cc1ccc2ncc(S(=O)(=O)c3ccccc3)c(N3CCC4(CC3)OCCO4)c2c1 | -8.02 |
| Cc1cc2n(n1)C(c1cc(Br)ccc1O)Nc1ccccc1-2 (stereo not shown) | 0.83 |
| CC(C)C[C@H](NC(=O)/C=C/S(=O)(=O)c1ccccc1)C(=O)N1CCC[C@H]1C(=O)O | 5.05 |
| COc1ccccc1OCC(=O)NCCC1=CCCCC1 | -1.42 |
| O=C(COc1cc(Cl)c(Cl)cc1Cl)Nc1cccnc1 | 0.161 |
| O=C(Nc1ccc(NC(=O)c2ccco2)cc1)c1ccc(Cl)cc1 | -6.79 |
| O=C(CCc1ccccc1)n1nc(-c2ccccc2)nc1NCc1ccco1 | -1.11 |
| CCC(C)C(NC(=O)C1CCC(C)CC1)C(=O)NCCc1ccccc1 (stereo not shown) | -2.49 |
| CC1CCN(c2ccc3nnc(CCC(=O)Nc4cccnc4)n3n2)CC1 | -6.16 |
| Cc1ccccc1CCNC(=O)Cn1ccc2cc(S(=O)(=O)N3CCC(C)CC3)ccc21 | -1.81 |
| CCC[C@H](NC(=O)C(CSCc1ccccc1)CSCc1ccccc1)C(=O)c1nc2ccccc2o1 | -0.214 |
